Reference: a collection of fitness landscapes (doi:10.1016/j.celrep.2020.107928)
In all, about 81,000 sequences were measured (“one-hybrid fitness for binding NBS DNA”: median about -0.1, highest 2% from about 0.36 on). This is one part of the list.

B1: Caulobacter ParB omega fusion; a variant is named by its letters at X, in order, B8GW30 (parent)
chain: MESVVVGEPGMSEGRRGLGRGLSALLGEVDAAPAQAPGEQLGGSREAPIEILQRNPDQPRRTFREEDLEDLSNSIREKGVLQPILVRPSPDTAGEYQIVAGERAWRAAQRAGLKTVPIMVRELDDLAVLEIGIIENVQRADLNVLEEALSYKVLMEKFERTQENIAQTIGKSXSHVANXMRLLXLPDEVQSYLVSGELTAXHARAIAAAADPVALAKQIIEGGLSVRETEALARKAPNLSAGKSKGGRPPRVKDTDTQALESDLSSVLGLDVSIDHRGSTGTLTITYATLEQLDDLCNRLTRGI

Variants of: B1
Test: one-hybrid fitness for binding NBS DNA (the Noc-binding site; scaled: cognate 1, non-cognate 0); higher = stronger binding
Details: with NBS DNA site
In short: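 Selection: bacterial one-hybrid in E. coli USO, HIS3 reporter with the site 19 bp from the promoter, 48 hours at 37°C on M9-minus-histidine plus 0.1 mM IPTG and 5 mM 3-AT. Libraries were Caulobacter ParB with four randomised specificity codons, sequenced on Illumina before and after selection. Fitness is the rescaled log change in variant-to-wild-type read ratio, anchored to the cognate and non-cognate sites.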

Variant	one-hybrid fitness for binding NBS DNA
ETGC	≤ 0.2
CTTN	≤ 0.2
PSRH	≤ 0.2
HLYY	≤ 0.2
QLTY	≤ 0.2
HTWK	≤ 0.2
KKMR	0.201
RRYL	≤ 0.2
NNNS	≤ 0.2
PRQR	≤ 0.2
HILL	≤ 0.2
RQLC	≤ 0.2
AEQF	≤ 0.2
AKSC	≤ 0.2
SRGA	≤ 0.2
FKER	≤ 0.2
TMRP	≤ 0.2
ADWT	≤ 0.2
ACQS	≤ 0.2
LRSM	≤ 0.2
FAAT	≤ 0.2
WYHT	≤ 0.2
EPGS	≤ 0.2
TGVR	≤ 0.2

Variant	one-hybrid fitness for binding NBS DNA
NTYS	≤ 0.2
VLQS	≤ 0.2
MAML	≤ 0.2
PYSI	≤ 0.2
NERT	≤ 0.2
TRFA	≤ 0.2
YSMY	≤ 0.2
NITF	≤ 0.2
RPSV	≤ 0.2
LWYG	≤ 0.2
HWWF	≤ 0.2
CPAN	≤ 0.2
MIFS	≤ 0.2
RMTW	≤ 0.2
FWSG	≤ 0.2
VKSG	≤ 0.2
WMSC	≤ 0.2
VDRW	≤ 0.2
QRNI	0.403
TKRC	≤ 0.2
VICG	≤ 0.2
RMWE	≤ 0.2
RKCP	≤ 0.2
QKHE	≤ 0.2

Variant	one-hybrid fitness for binding NBS DNA
ESAC	≤ 0.2
KVKM	≤ 0.2
CRFY	≤ 0.2
DPIE	≤ 0.2
APAY	≤ 0.2
TEKH	≤ 0.2
WRAC	≤ 0.2
RRYH	0.436
HAAS	≤ 0.2
ILDE	≤ 0.2
QRTL	0.27
KLGC	≤ 0.2
GERI	≤ 0.2
QPVP	≤ 0.2
CISV	≤ 0.2
AIYP	≤ 0.2
DPAG	≤ 0.2
LRPS	≤ 0.2
DISN	≤ 0.2
SPTT	≤ 0.2
VGAG	≤ 0.2
QVGV	≤ 0.2
RDQD	≤ 0.2
ERVW	≤ 0.2

Variant	one-hybrid fitness for binding NBS DNA
QDIT	≤ 0.2
NHRE	≤ 0.2
QGAE	0.284
NRGG	≤ 0.2
TMPK	≤ 0.2
HWFS	≤ 0.2
RRPS	0.568
SFAG	≤ 0.2
RTNI	≤ 0.2
IILL	≤ 0.2
DTRY	≤ 0.2
LFSG	≤ 0.2
TRNS	0.237
LCPG	≤ 0.2
KYVG	≤ 0.2
GRGK	≤ 0.2
QRVP	≤ 0.2
MMTM	≤ 0.2
TATI	≤ 0.2
PDAL	≤ 0.2
QLDQ	≤ 0.2
RPAI	≤ 0.2
SYKF	≤ 0.2
PYTA	≤ 0.2

Variant	one-hybrid fitness for binding NBS DNA
SGLT	≤ 0.2
TPTI	≤ 0.2
RKDT	0.498
CASR	≤ 0.2
FGKS	≤ 0.2
QGPD	≤ 0.2
MTDG	≤ 0.2
CQGE	≤ 0.2
WNST	≤ 0.2
QWLR	≤ 0.2
QAAD	≤ 0.2
HHCS	≤ 0.2
HVCG	≤ 0.2
KWAE	≤ 0.2
YTFW	≤ 0.2
IQGL	≤ 0.2
TDKQ	≤ 0.2
RKGP	≤ 0.2
PYMT	≤ 0.2
RNLC	≤ 0.2
LRYL	≤ 0.2
AYSC	≤ 0.2
MMAS	≤ 0.2
VSRF	≤ 0.2

Variant	one-hybrid fitness for binding NBS DNA
MASG	≤ 0.2
FACC	≤ 0.2
SMHL	≤ 0.2
PTKS	≤ 0.2
WFQV	≤ 0.2
RCWN	≤ 0.2
VLTI	≤ 0.2
QVIV	≤ 0.2
PCSF	≤ 0.2
QYMN	≤ 0.2
QMPI	≤ 0.2
IIGC	≤ 0.2
KQGR	≤ 0.2
WELC	≤ 0.2
FRIW	≤ 0.2
NRVC	≤ 0.2
ALAT	≤ 0.2
QQWY	≤ 0.2
SWYQ	≤ 0.2
SVNC	≤ 0.2
EGSN	≤ 0.2
NNYM	≤ 0.2
GVWR	≤ 0.2
GPSY	≤ 0.2

Variant	one-hybrid fitness for binding NBS DNA
SCKG	≤ 0.2
GHPV	≤ 0.2
QISL	≤ 0.2
ILDG	≤ 0.2
QGSL	≤ 0.2
NNDW	≤ 0.2
EYQL	≤ 0.2
RNCM	≤ 0.2
RYKN	0.218
QNTE	≤ 0.2
ISVL	≤ 0.2
PKTY	≤ 0.2
TQHR	≤ 0.2
CTVR	≤ 0.2
GRAL	≤ 0.2
PWFN	≤ 0.2
NEHL	≤ 0.2
CHYV	≤ 0.2
HVDW	≤ 0.2
CYSG	≤ 0.2
DAPD	≤ 0.2
TMVT	≤ 0.2
HCAC	≤ 0.2
QQIR	0.435

Variant	one-hybrid fitness for binding NBS DNA
DDPL	≤ 0.2
NDGK	≤ 0.2
TYVG	≤ 0.2
YQVL	≤ 0.2
DMNC	≤ 0.2
HLTH	≤ 0.2
HPQH	≤ 0.2
QGNM	≤ 0.2
IQLF	≤ 0.2
QYVT	0.363
LNHV	≤ 0.2
DLDS	≤ 0.2
QPFL	≤ 0.2
ASNG	≤ 0.2
NSHF	≤ 0.2
IAPC	≤ 0.2
REGY	≤ 0.2
QHNE	≤ 0.2
YELS	≤ 0.2
TNPI	≤ 0.2
YHFG	≤ 0.2
RWEF	≤ 0.2
DESG	≤ 0.2
HLSK	≤ 0.2

Variant	one-hybrid fitness for binding NBS DNA
VGYT	≤ 0.2
ERSG	≤ 0.2
TVEE	≤ 0.2
QQLH	0.22
ASLW	≤ 0.2
LTST	≤ 0.2
DVNC	≤ 0.2
RFKA	≤ 0.2
NPMG	≤ 0.2
ITTM	≤ 0.2
KYLA	≤ 0.2
KFMT	≤ 0.2
IPHA	≤ 0.2
FMPE	≤ 0.2
DYWM	≤ 0.2
QSST	0.424
RMSI	≤ 0.2
EGAF	≤ 0.2
LIDT	≤ 0.2
ITRP	≤ 0.2
KAAS	≤ 0.2
LFFT	≤ 0.2
RTDD	≤ 0.2
QQVI	≤ 0.2

Variant	one-hybrid fitness for binding NBS DNA
QKTM	≤ 0.2
EWFG	≤ 0.2
LQPR	≤ 0.2
MSAL	≤ 0.2
PVWA	≤ 0.2
RLSI	≤ 0.2
HYAC	≤ 0.2
QKQP	≤ 0.2
EGPT	≤ 0.2
RFNE	≤ 0.2
RSMN	≤ 0.2
SDQR	≤ 0.2
HNSF	≤ 0.2
MRWR	≤ 0.2
LSLY	≤ 0.2
PTII	≤ 0.2
VWEG	≤ 0.2
SGAG	≤ 0.2
PDGR	≤ 0.2
DMSM	≤ 0.2
PFQM	≤ 0.2
PHTS	≤ 0.2
QTFA	0.301
DRYR	≤ 0.2

Variant	one-hybrid fitness for binding NBS DNA
QVLI	≤ 0.2
QVVG	≤ 0.2
SPAM	≤ 0.2
RACT	0.334
YRET	≤ 0.2
AKFC	≤ 0.2
VRTT	≤ 0.2
NPFY	≤ 0.2
CDNR	≤ 0.2
PWVG	≤ 0.2
EPSS	≤ 0.2
WESG	≤ 0.2
WHLD	≤ 0.2
MLPF	≤ 0.2
TQTF	≤ 0.2
QTTS	0.528
MSMS	≤ 0.2
QLSM	≤ 0.2
AQRI	≤ 0.2
HDCT	≤ 0.2
RVIK	≤ 0.2
GGEC	≤ 0.2
EFNG	≤ 0.2
SAHR	≤ 0.2

Variant	one-hybrid fitness for binding NBS DNA
FMSQ	≤ 0.2
CHPS	≤ 0.2
LVWN	≤ 0.2
HPQW	≤ 0.2
FWVS	≤ 0.2
IFEI	≤ 0.2
GMSG	≤ 0.2
HDPY	≤ 0.2
SFQT	0.203
IRCI	≤ 0.2
HIPM	≤ 0.2
TKFS	≤ 0.2
HPVR	≤ 0.2
MHLW	≤ 0.2
NAPL	≤ 0.2
NRWY	≤ 0.2
PIPA	≤ 0.2
IATT	≤ 0.2
RKGD	≤ 0.2
ELSW	≤ 0.2
RYST	0.452
LRYH	≤ 0.2
YAMY	≤ 0.2
GMSK	≤ 0.2

Variant	one-hybrid fitness for binding NBS DNA
YYKA	≤ 0.2
RNHA	≤ 0.2
TTRE	≤ 0.2
NRLR	≤ 0.2
WHTW	≤ 0.2
VINT	≤ 0.2
YDMG	≤ 0.2
SVNR	≤ 0.2
TINR	≤ 0.2
SAID	≤ 0.2
PWHV	≤ 0.2
LWGS	≤ 0.2
MVDG	≤ 0.2
RRND	≤ 0.2
RSKD	≤ 0.2
RVAA	≤ 0.2
LLIR	≤ 0.2
LSRT	≤ 0.2
